# Test results taken from PubChem BioAssay AID686978 (National Center for Advancing Translational Sciences (NCATS), 2013).
# Several values for one entry are separate records, joined by “and”; a condition that tells them apart may be missing. Identical values can stand only once. Hit rate of the full screen: of about 420,000 compounds, about 64,000 (15%) were called active. This list was built around the results that the source calls inconclusive (neither active nor inactive); the mix of calls is not that of the screen. Calls follow the shape of the dose curve; as a rule, active = well fitted inhibition curve with a large enough effect; inconclusive = small, poorly fitted or top-dose-only effect; inactive = flat fitted curve, though single readings scatter. A potency beside an inconclusive call is a rough fit, not a confirmed value.
# Test: qHTS for Inhibitors of human tyrosyl-DNA phosphodiesterase 1 (TDP1): qHTS in cells in absence of CPT; also: nearly all actives have a fitted effect of over 55% in size
# Settings: DT40 Tdp1-/- hTDP1 cells, no CPT, ATP luminescence, 48 h; activity change, negative = growth inhibition: at 46.2 µM (top of the series) unless noted
# Method in brief: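 Compound effects on proliferation are scored in DT40 Tdp1-/-;hTDP1 cells in the absence of CPT. ATP levels (CellTiter-Glo luminescence) are recorded after a ≥48 hr, 37 °C incubation.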
# % is scaled to controls: 0 for no effect and ±100 for the full control effect; potency is read from the fitted curve at half-maximal effect; tags tell the direction and shape of the fitted curve.
SMILES,Potency,"activity change, negative = growth inhibition"
C/C(=N\NC(N)=S)C12CC3CC(CC(C3)C1)C2,active: 14.6 µM,
COCCNC(=O)c1c(NC(=O)c2ccc(Br)o2)n(Cc2ccccc2)c2nc3ccccc3nc12,"inconclusive: 23.1 µM [inhibitor, single point]",
CCOc1ccc(OC(=O)c2ccc3c(=O)n4c(nc3c2)CCC4)cc1,"inconclusive: 14.6 µM [inhibitor, partial curve]",
CC1=C2C(=O)C3C(CC=C4CC(OC5OC(O)C(O)C(O)C5CO)CCC43C)C2CCC12OC1CC(C)CNC1C2C (centres undefined),"inconclusive: 7.31 µM [inhibitor, partial curve]",
CN1C(=O)C(C)(C2=CCCCC2)C(=O)NC1=S (centres undefined),,inactive: -1.06%
CCOP(=O)(Cc1cc(C(=O)CC)c(C)o1)OCC,"inconclusive: 32.6 µM [inhibitor, single point]",
Nc1c([N+](=O)[O-])cc(F)c(N2CCNCC2)c1Br,"inconclusive: 18.4 µM [inhibitor, partial curve]",
COP(=S)(OC)Oc1ccc(Sc2ccc(OP(=S)(OC)OC)cc2)cc1,"inactive and inconclusive: 8.2 µM [inhibitor, partial curve]",
CC(=O)O[C@H]1CCC2C3CCC4=CC(=O)CCC4=C3C=C[C@@]21C (some centres undefined),"inconclusive: 18.4 µM [inhibitor, single point]",
N[C@@H](Cc1c[nH]c2ccccc12)c1nnc(SCc2ccc(Cl)cc2)o1,"inconclusive: 4.61 µM [inhibitor, full curve, poor fit]",
CCCCCCC(=O)CCCCCC/C=C/C[C@@H](O)[C@H](O)[C@@](N)(CO)C(=O)O,"inconclusive: 84.1 nM [inhibitor, full curve, poor fit] and inconclusive: 26.6 nM [inhibitor, full curve]",
COC(=O)C1=C(c2ccc(F)cc2F)C[C@@H]2CC[C@H]1N2C(=O)NCC1CC1,"inconclusive: 29.1 µM [inhibitor, single point]",
C[C@H](CO)N1C[C@H](C)[C@@H](CN(C)C(=O)Nc2ccc(C(F)(F)F)cc2)Oc2c(NS(=O)(=O)c3cccs3)cccc2C1=O,"inconclusive: 29.1 µM [inhibitor, single point]",
COc1ccc(C(=O)C2CCCN(Cc3ccccn3)C2)c(OC)c1 (centres undefined),active: 14.6 µM,
O=C1Nc2ccc(Br)cc2C(c2ccc(Cl)cc2)=NC1O (centres undefined),,inactive: -16.3%
COc1ccc(C(=O)Nc2nnc(S(=O)(=O)N(CC(C)C)c3ccc(C)cc3)s2)cc1OC,"inconclusive: 23.1 µM [inhibitor, single point]",
CCC1=Nc2cc(C(=O)N3CCC4(CC3)OCCO4)ccc2Sc2ccc(C)cc21,"inconclusive: 20.6 µM [inhibitor, single point]",

SMILES,Potency,"activity change, negative = growth inhibition"
CC/C(=N\N1CCCCCC1)c1c(O)n(-c2ccc(C)cc2)c(=O)[nH]c1=O,"inconclusive: 16.4 µM [inhibitor, partial curve, poor fit]",
CC(C)(C)c1cc(O)ccc1O,active: 1.19 µM,
O=C(Nc1ccc(F)c([N+](=O)[O-])c1)c1cccn(Cc2ccccc2)c1=O,"inconclusive: 29.1 µM [inhibitor, single point]",
CCN(CC)C(=O)c1ccc(NC(=O)c2cccc(F)c2)cc1,,inactive: -16.8%
CC1CC=CCC12C(=O)NC(=S)NC2=O (centres undefined),,inactive: 0.763%
OCC[n+]1c2ccccc2nc2ccc(N3CCOCC3)cc21,"inconclusive: 16.4 µM [inhibitor, partial curve]",
Cc1cccc(CNCCc2c[nH]c3ccccc23)c1,active: 13 µM,
C=C1C2CC[C@@]3(C)C(c4ccoc4)OC(=O)C[C@@]13OC1CC(=O)C(C)(C)C(C(OC(C)=O)C(=O)OC)[C@@]12C (some centres undefined),,inactive: -13.6%
c1ccc2c(CNC3CCCCCC3)c[nH]c2c1,active: 7.31 µM,
Cc1cccc(N2C(=O)NC(=O)/C(=C\c3ccc4c(c3)CCCN4Cc3ccccc3)C2=O)c1,"inconclusive: 16.4 µM [inhibitor, single point]",
CCOC(=O)C1SC2(C(F)(F)C(F)F)CC1(O)c1c(c(OC)c3occc3c1OC)O2 (centres undefined),"inconclusive: 23.1 µM [inhibitor, single point]",
COC(=O)C1CN(C#N)N(c2ccc(Cl)cc2)C12c1ccccc1-c1ccccc12 (centres undefined),active: 2.91 µM,
CCCn1c(=O)n(C)c(=O)c2c(SCC(=O)NC34CC5CC(CC(C5)C3)C4)nc(CC(C)C)nc21,"inconclusive: 29.1 µM [inhibitor, single point]",
c1ccc(N2CC3(CCNCC3)C2)cc1,"inconclusive: 13 µM [inhibitor, partial curve]",
Cc1ccc(S(=O)(=O)N2CCCc3cc(NS(=O)(=O)c4cc(C)ccc4C)ccc32)cc1,active: 13 µM,
CCCCCn1c(=O)c(C(=O)NCc2ccccc2Cl)c(O)c2ccccc21,"inconclusive: 6.51 µM [inhibitor, single point]",
O=C(O)Cn1cc(/C=C2\C(=O)NC(=O)N(Cc3ccco3)C2=O)c2ccccc21,"inconclusive: 1.46 µM [inhibitor, full curve, poor fit]",
